Assay results from the supplement of paper PMC8007513.
Structures can show the parent of a compound that is named as a salt. ± gives the standard error. About 75 (6%) of roughly 1,300 compounds showed an effect of 50% or more. The list shows a part of the results.

System: Trichoderma virens ATCC 9645
Assay: growth yield (OD600) relative to untreated control; higher = less growth inhibition
Settings: compound concentration: 100 uM
Procedure, shortened: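 For each 96-well plate, 100 μl aliquots were prepared with Trichoderma virens ATCC 9645 spores suspended at 15,000 spores ml^−1 in potato dextrose broth. The spores had been harvested from potato dextrose agar plates after 7 days. Library compounds were present at 100 μM final, some wells also receiving a biocide at 200 ng ml^−1, and plates were grown at 30 °C with OD600 read on a BioTek EL800 at 40 h and 72 h. Reported growth, relative to the control lacking both agents, is the mean of duplicate screens.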

SMILES	growth yield (40 h)	growth yield (72 h)
C#C[C@]1(O)CC[C@H]2[C@@H]3CCC4=Cc5oncc5C[C@]4(C)[C@H]3CC[C@@]21C [Danazol]	83.39 ± 0.79%	87.15 ± 0.32%
O=C(Nc1ccc([N+](=O)[O-])cc1Cl)c1cc(Cl)ccc1O [Niclosamide]	96.1 ± 0.16%	96.59 ± 0.1%
CCOc1ccc(Cc2nccc3cc(OCC)c(OCC)cc23)cc1OCC [Ethaverine hydrochloride]	112 ± 16%	104 ± 10%
CCC[C@@H]1C[C@@H](C(=O)N[C@@H]([C@H]2O[C@H](SC)[C@H](O)[C@@H](O)[C@H]2O)[C@@H](C)O)N(C)C1 [Lincomycin hydrochloride]	99.6 ± 2.1%	102.7 ± 0.73%
CCN(CC)CCN[C@@H](C(=O)OCCC(C)C)c1ccccc1 [Camylofine chlorhydrate]	104 ± 1.8%	102 ± 1.5%
CN1CCCN=C1/C=C/c1cccs1 [Pyrantel tartrate]	96.1 ± 2.7%	99.2 ± 3.8%
NNC(=O)c1ccncc1 [Isoniazid]	98.8 ± 0.32%	99.8 ± 2.3%
CC1(C)O[C@@H]2C[C@H]3[C@@H]4C[C@H](F)C5=CC(=O)CC[C@]5(C)[C@H]4[C@@H](O)C[C@]3(C)[C@]2(C(=O)CO)O1 [Flurandrenolide]	102 ± 1.9%	97.2 ± 2.6%
O=C(O)c1cccnc1 [Niacin]	99.75 ± 0.32%	97.5 ± 1.5%
CCCCc1oc2ccccc2c1C(=O)c1cc(I)c(OCCN(CC)CC)c(I)c1 [Amiodarone hydrochloride]	3.18%	2.94%
O=c1[nH]c(=O)n([C@H]2C[C@H](O)[C@@H](CO)O2)cc1I [Idoxuridine]	102 ± 3.8%	99.4 ± 3.1%
Cc1cccc(N(C)C(=S)Oc2ccc3ccccc3c2)c1 [Tolnaftate]	0%	0%
CCN1CCCC1CNC(=O)c1cc(S(N)(=O)=O)ccc1OC (configuration not stated) [Sulpiride]	100.5 ± 0.16%	98.48 ± 0.32%
COc1ccc(-c2ccc3cc(C(=O)O)ccc3c2)cc1C12CC3CC(CC(C3)C1)C2 [Adapalene]	107 ± 1.9%	106.6 ± 0.84%
O=C(O)CCC(=O)c1ccc(-c2ccccc2)cc1 [Fenbufen]	79.4 ± 6%	76 ± 3.2%
CN1CCN2c3ccccc3Cc3ccccc3C2C1 (configuration not stated) [Mianserine hydrochloride]	97.7 ± 2.1%	99.21 ± 0.21%
N[C@@H](Cc1ccc(O)c(O)c1)C(=O)O [Levodopa]	99 ± 5.6%	97.2 ± 2.2%
CCCCc1ncc(/C=C(\Cc2cccs2)C(=O)O)n1Cc1ccc(C(=O)O)cc1 [Eprosartan mesylate]	98.3 ± 5.6%	94.08 ± 0.94%
O=C(NC(Cc1cc(=O)[nH]c2ccccc12)C(=O)O)c1ccc(Cl)cc1 (configuration not stated) [Rebamipide]	99.1 ± 1.9%	96.5 ± 1.9%
CC(C)(C)NC[C@H](O)COc1cccc2c1CCCC2=O [(-) -Levobunolol hydrochloride]	102 ± 3.6%	99.2 ± 3.1%
C[N+](C)(C)CCOC(N)=O [Carbachol]	103 ± 7.2%	98.5 ± 6%
Nc1ncn(C2OC(CO)C(O)C2O)c(=O)n1 (configuration not stated) [Azacytidine-5]	89.4 ± 5.9%	88.4 ± 4.3%

SMILES	growth yield (40 h)	growth yield (72 h)
CCOC(=O)C1=C(C)NC(C)=C(C(=O)OC)C1c1cccc(Cl)c1Cl (configuration not stated) [Felodipine]	92.8%	94.2%
C[C@H](CCC(=O)O)[C@H]1CC[C@H]2[C@@H]3C(=O)C[C@@H]4CC(=O)CC[C@]4(C)[C@H]3CC(=O)[C@]12C [Dehydrocholic acid]	97.7 ± 2.7%	97.7 ± 2.5%
O=C1c2c(O)ccc(O)c2C(=O)c2c(NCCNCCO)ccc(NCCNCCO)c21 [Mitoxantrone dihydrochloride]	2.86 ± 2.9%	0.21 ± 0.21%
CCN(CC)CCNC(=O)c1cc(Br)c(N)cc1OC [Bromopride]	98.96 ± 0.48%	95.96 ± 0.1%
CCCCC(=O)N(Cc1ccc(-c2ccccc2-c2nnn[nH]2)cc1)[C@H](C(=O)O)C(C)C [Valsartan]	97.5 ± 2.5%	95.02 ± 0.63%
OC(CCN1CCCCC1)(c1ccccc1)c1ccccc1 [Pridinol methanesulfonate salt]	97.4 ± 2.7%	89.8 ± 7.8%
CC(C)NNC(=O)c1ccncc1 [Iproniazide phosphate]	102 ± 1.3%	101 ± 3.5%
O=C1c2cccc(O)c2C(=O)c2c(O)cccc21 [1,8-Dihydroxyanthraquinone]	85.8 ± 11%	87.2 ± 8.7%
O=C1Nc2ccc(Cl)cc2[C@@](C#CC2CC2)(C(F)(F)F)O1 [Efavirenz]	65 ± 3.6%	101 ± 5.3%
Nc1ccc(C(=O)O)c(O)c1 [4-aminosalicylic acid]	93.1%	89.36 ± 0.42%
CC[N+](C)(CC)CCC[n+]1c(-c2ccccc2)c2cc(N)ccc2c2ccc(N)cc21 [Propidium iodide]	83.7 ± 2.4%	93.2 ± 2.4%
O=C(O)c1ccccc1Nc1cccc(C(F)(F)F)c1 [Flufenamic acid]	51 ± 11%	69.3 ± 8.1%
O=C1O[C@H]([C@@H](O)CO)C(O)=C1O [Ascorbic acid]	99.6 ± 1.4%	100 ± 1.6%
Clc1ccc(C(c2ccccc2Cl)C(Cl)Cl)cc1 (configuration not stated) [Mitotane]	85.6 ± 2.4%	91.3 ± 2%
Cc1cccc(C)c1OCC(=O)N[C@@H](Cc1ccccc1)[C@@H](O)C[C@H](Cc1ccccc1)NC(=O)[C@H](C(C)C)N1CCCNC1=O [Lopinavir]	101 ± 7.2%	112.2 ± 0.63%
CN(C)CCOC(=O)C(c1ccccc1)C1(O)CCCC1 (configuration not stated) [Cyclopentolate hydrochloride]	101 ± 7.3%	99.4 ± 6.7%
Nc1ccc(/N=N/c2ccccc2)c(N)n1 [Phenazopyridine hydrochloride]	21.1 ± 1.4%	49.4 ± 6.2%
CCC(=O)O[C@]1(C(=O)SCF)[C@H](C)C[C@H]2[C@@H]3C[C@H](F)C4=CC(=O)C=C[C@]4(C)[C@@]3(F)[C@@H](O)C[C@@]21C [Fluticasone propionate]	106 ± 7.2%	101 ± 3.8%
OCCN1CCN(CC/C=C2/c3ccccc3Sc3ccc(Cl)cc32)CC1 [Zuclopenthixol dihydrochloride]	15.1 ± 1.8%	60.4 ± 5.7%
Nc1nc(/C(=C/CC(=O)O)C(=O)N[C@@H]2C(=O)N3C(C(=O)O)=CCS[C@H]23)cs1 [Ceftibuten]	89.9 ± 1.3%	88.3 ± 3.6%
CCc1nn(CCCN2CCN(c3cccc(Cl)c3)CC2)c(=O)n1CCOc1ccccc1 [Nefazodone hydrochloride]	93.88 ± 0.16%	107 ± 1.8%
CCCNC(C)(C)COC(=O)c1ccccc1 [Meprylcaine hydrochloride]	105 ± 4.8%	102 ± 3.9%

SMILES	growth yield (40 h)	growth yield (72 h)
C[N+](C)(CCOc1ccccc1)Cc1ccccc1.O=C([O-])c1cc2ccccc2cc1O [Bephenium hydroxynaphthoate]	73.2 ± 1.1%	79.6 ± 2.2%
CC(NCCc1ccc(O)cc1)C(O)c1ccc(O)cc1 (configuration not stated) [Ritodrine hydrochloride]	103 ± 2.5%	107 ± 1.3%
CCC1(C)CC(=O)NC1=O (configuration not stated) [Ethosuximide]	102.6 ± 0.32%	103 ± 1.1%
NC1CCN(c2c(F)cc3c(=O)c(C(=O)O)cn(C4CC4)c3c2Cl)C1 (configuration not stated) [Clinafloxacin]	97.7 ± 4.6%	95.5 ± 2.6%
CCCc1nn(C)c2c(=O)[nH]c(-c3cc(S(=O)(=O)N4CCN(C)CC4)ccc3OCC)nc12 [Sildenafil]	99.6 ± 4.3%	95.1 ± 4.5%
CCC(C)(C)C(=O)O[C@H]1C[C@@H](C)C=C2C=C[C@H](C)[C@H](CC[C@@H]3C[C@@H](O)CC(=O)O3)[C@H]21 [Simvastatin]	103 ± 1.3%	96.2 ± 4.5%
CC(=O)Oc1ccc(C(c2ccc(OC(C)=O)cc2)c2ccccn2)cc1 [Bisacodyl]	105%	98.6%
Cc1ccccc1OCC(O)CO (configuration not stated) [Mephenesin]	98 ± 3.3%	99.5 ± 3.5%
O=C1CN(/N=C/c2ccc([N+](=O)[O-])o2)C(=O)N1 [Nitrofurantoin]	95.3 ± 0.64%	97.5 ± 1.3%
C[C@H](N)[C@H](O)c1cccc(O)c1 [Metaraminol bitartrate]	102 ± 2.4%	104 ± 1.7%
CCN(CC)CCOC(=O)C(Cc1cccc2ccccc12)CC1CCCO1 (configuration not stated) [Nafronyl oxalate]	94.8 ± 4%	102 ± 1.7%
O=C1CN(/N=C/c2ccc(-c3ccc([N+](=O)[O-])cc3)o2)C(=O)N1 [Dantrolene sodium salt]	93.4 ± 2.2%	99.7 ± 1.4%
CCOC(=O)n1ccn(C)c1=S [Carbimazole]	97.5%	91.5%
CC1(C)S[C@@H]2[C@H](NC(=O)[C@H](C(=O)O)c3ccsc3)C(=O)N2[C@H]1C(=O)O [Ticarcillin sodium]	110 ± 1.9%	104.2 ± 0.42%
CN[C@@H]1[C@@H](O)[C@@H](O[C@@H]2[C@@H](O)[C@H](O[C@H]3OC(CN)=CC[C@H]3N)[C@@H](N)C[C@H]2N)OC[C@]1(C)O [Sisomicin sulfate]	105 ± 2.7%	102 ± 1.7%
Cc1cc(NS(=O)(=O)c2ccc(N)cc2)no1 [Sulfamethoxazole]	40 ± 4.8%	82.9 ± 2.1%
CC[C@H]1OC(=O)C[C@@H](O)[C@H](C)[C@@H](O[C@@H]2O[C@H](C)[C@@H](O[C@H]3C[C@@](C)(O)[C@@H](O)[C@H](C)O3)[C@H](N(C)C)[C@H]2O)[C@@H](CC=O)C[C@@H](C)C(=O)/C=C/C(C)=C/[C@@H]1CO[C@@H]1O[C@H](C)[C@@H](O)[C@@H](OC)[C@H]1OC [Tylosin]	95.94 ± 0.32%	94.2 ± 1.9%
O=C(CCCCCCC(=O)Nc1ccccc1)NO [Vorinostat]	108.2 ± 0.79%	99.74 ± 0.73%
CCNC(=O)CCC/C=C\C[C@@H]1[C@@H](/C=C/[C@@H](O)CCc2ccccc2)[C@H](O)C[C@@H]1O [Bimatoprost]	104 ± 1.6%	99.32 ± 0.1%
COC(=O)C1=C(C)NC(C)=C(C(=O)OC2CCCN(Cc3ccccc3)C2)C1c1cccc([N+](=O)[O-])c1 (configuration not stated) [Benidipine hydrochloride]	101 ± 5.4%	111 ± 2%
C[C@]12C[C@H](O)[C@H]3[C@@H](CCC4=CC(=O)CC[C@@]43C)[C@@H]1CC[C@@H]2C(=O)CO [Corticosterone]	101 ± 6.7%	104 ± 6.8%
CC1(C)O[C@@H]2C[C@H]3[C@@H]4CCC5=CC(=O)C=C[C@]5(C)[C@H]4[C@@H](O)C[C@]3(C)[C@]2(C(=O)CO)O1 [Desonide]	109 ± 11%	98.7 ± 6.6%
